Measured values taken from ChEMBL document CHEMBL5606458, “ASAP - ZIKV NS2B-NS3 protease fluorescence single point” (2024).
About 160 (5.9%) of roughly 2,700 compounds showed an effect of 50% or more. The list shows a part of the results.

Target: Nonstructural protein 3 (Zika virus) (UniProt A0A024AXB9)
[1] = PRVABC59, Concentration 15.0 uM, Number of replicates 1.0
[2] = PRVABC59, Concentration 50.0 uM, Number of replicates 1.0

Sequence of UniProt A0A024AXB9 (A0A024AXB9 as listed by the source): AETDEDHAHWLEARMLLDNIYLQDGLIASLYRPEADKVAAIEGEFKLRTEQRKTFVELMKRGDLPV

O=C(c1cc(Cl)ccc1NS(=O)(=O)c1ccc(Oc2ccccc2Cl)cc1)N1CCCC[C@H]1C(F)(F)F
inhibition [1]: 22.3%

O=C(c1cc(Cl)ccc1NS(=O)(=O)c1ccc(Oc2ccccc2Cl)cc1)N1CCN(C(=O)N2CCCCC2)CC1
inhibition [1]: 2.28%

O=C(c1cc(Cl)ccc1NS(=O)(=O)c1ccc(Oc2ccccc2Cl)cc1)N1CCN(CCc2ccncc2)CC1
inhibition [1]: 6.55%

c1cnc(N2CCOCC2)c(CN2CCC(c3c[nH]c4cccnc34)CC2)c1
inhibition (PRVABC59, Concentration 49.5 uM, Number of replicates 2.0, Standard deviation 3.054703307448636 %): -2.07% | inhibition (PRVABC59, Concentration 99.01 uM, Number of replicates 2.0, Standard deviation 3.2076979533183563 %): -1.91% | inhibition (PRVABC59, Concentration 198.0 uM, Number of replicates 2.0, Standard deviation 3.2803054039927106 %): -0.506%

CNC(=O)c1cn(C[C@H]2CCCN2C(=O)c2cccc3ncsc23)nn1
inhibition (PRVABC59, Concentration 49.5 uM, Number of replicates 2.0, Standard deviation 0.4404705814208952 %): -0.654% | inhibition (PRVABC59, Concentration 99.01 uM, Number of replicates 2.0, Standard deviation 0.04041014547115413 %): -1.78% | inhibition (PRVABC59, Concentration 198.0 uM, Number of replicates 2.0, Standard deviation 0.19194812776770936 %): -2.01%

CC(C)Sc1ccccc1NC(=O)c1cc(Cl)ccc1NS(=O)(=O)c1ccc(Oc2ccccc2Cl)cc1
inhibition [1]: 28.1%

O=Cc1ccc(N2CCC(C(=O)NCC(=O)c3ccc([N+](=O)[O-])cc3)CC2)cc1
inhibition [2]: 35.1%

CCN(C(=O)c1cc(Cl)ccc1NS(=O)(=O)c1ccc(Oc2ccccc2Cl)cc1)C1C2CC3CC(C2)CC1C3 (stereo not given)
inhibition [1]: 18.8%

CN1CCCC[C@@H](CNCc2nnc3ccccn23)C1=O
inhibition (PRVABC59, Concentration 49.5 uM, Number of replicates 2.0, Standard deviation 0.5296867563942403 %): -4.42% | inhibition (PRVABC59, Concentration 99.01 uM, Number of replicates 2.0, Standard deviation 1.7504892738878128 %): -3.78% | inhibition (PRVABC59, Concentration 198.0 uM, Number of replicates 2.0, Standard deviation 0.03026767496440153 %): -3.49%

O=Cc1ccc(N2CCC(C(=O)N[C@H]3Cc4ccc(Br)cc4C3)CC2)cc1
inhibition [2]: 0.902%

Cc1ccc(C)c(N2CCN(C(=O)c3cc(Cl)ccc3NS(=O)(=O)c3ccc(Oc4ccccc4Cl)cc3)CC2)c1
inhibition [1]: 4.76%

O=C(c1cc(Cl)ccc1NS(=O)(=O)c1ccc(Oc2ccccc2Cl)cc1)N1CCC(O)(Cc2ccccn2)CC1
inhibition [1]: 4.57%

Cc1cc(CO)c2cccc(NCCc3c(C)n[nH]c3C)c2n1
inhibition (PRVABC59, Concentration 49.95 uM, Number of replicates 2.0, Standard deviation 0.1462994662014392 %): 10.8% | inhibition (PRVABC59, Concentration 99.9 uM, Number of replicates 2.0, Standard deviation 0.8122149522265316 %): 16.7%

Cc1cccc(NC(=O)CNC(=O)C2CCN(c3ccc(C=O)cc3)CC2)c1C
inhibition [2]: 21%

Nc1ccc(Cl)c2cccnc12
inhibition (PRVABC59, Concentration 99.9 uM, Number of replicates 2.0, Standard deviation 7.433905478836123 %): -9.18%

CCOC(=O)[C@H]1CCCN(C(=O)c2cc(Cl)ccc2NS(=O)(=O)c2ccc(Oc3ccccc3Cl)cc2)C1
inhibition [1]: 14.8%

Cc1nn(Cc2cccnc2F)cc1C1CCNCC1
inhibition (PRVABC59, Concentration 49.5 uM, Number of replicates 2.0, Standard deviation 6.869655819998887 %): -4.33% | inhibition (PRVABC59, Concentration 99.01 uM, Number of replicates 2.0, Standard deviation 4.318179977943179 %): -3.71% | inhibition (PRVABC59, Concentration 198.0 uM, Number of replicates 2.0, Standard deviation 4.43995469875831 %): 0.223%

c1cnc2c(C3CCN(Cc4ccc5[nH]cnc5c4)CC3)c[nH]c2c1
inhibition (PRVABC59, Concentration 49.5 uM, Number of replicates 2.0, Standard deviation 2.816135776094685 %): 1.64% | inhibition (PRVABC59, Concentration 99.01 uM, Number of replicates 2.0, Standard deviation 1.9941147484327908 %): 7.38% | inhibition (PRVABC59, Concentration 198.0 uM, Number of replicates 2.0, Standard deviation 0.19707731493778816 %): 19.3%

NCc1cccc(NC(=O)[C@H]2CC(F)(F)CN2C(=O)OCc2ccccc2)c1
inhibition (PRVABC59, Concentration 49.5 uM, Number of replicates 2.0, Standard deviation 3.1999184669467913 %): 1.62% | inhibition (PRVABC59, Concentration 99.01 uM, Number of replicates 2.0, Standard deviation 2.289731058014261 %): 3.57% | inhibition (PRVABC59, Concentration 198.0 uM, Number of replicates 2.0, Standard deviation 2.9691301638149588 %): 6.61%

CNC(=O)c1cc(OC)ccc1NS(=O)(=O)c1ccc(Oc2ccccc2Cl)cc1
inhibition (PRVABC59, Concentration 49.5 uM, Number of replicates 2.0, Standard deviation 3.2128953973095986 %): -4.51%

O=C(O)c1cccc(NC(=O)c2ccc3[nH]ccc3c2)c1
inhibition (PRVABC59, Concentration 49.5 uM, Number of replicates 2.0, Standard deviation 1.6936191403460628 %): 1.68% | inhibition (PRVABC59, Concentration 99.01 uM, Number of replicates 2.0, Standard deviation 1.548333263704462 %): 5.18% | inhibition (PRVABC59, Concentration 198.0 uM, Number of replicates 2.0, Standard deviation 1.023228375505538 %): 11.9%

O=Cc1ccc(N2CCC(C(=O)N3CCN(C(=O)C4CC4)CC3)CC2)cc1
inhibition [2]: 23.6%

Cc1cnccc1NC(=O)c1cn(C)c(=O)n(C)c1=O
inhibition (PRVABC59, Concentration 49.5 uM, Number of replicates 2.0, Standard deviation 1.1484125234841103 %): -2.08% | inhibition (PRVABC59, Concentration 99.01 uM, Number of replicates 2.0, Standard deviation 0.8202945030860701 %): -3.34% | inhibition (PRVABC59, Concentration 198.0 uM, Number of replicates 2.0, Standard deviation 1.3175983184828441 %): -4.92%

CN(C[C@H](O)c1ccc(O)cc1)C(=O)C1CCN(c2ccc(C=O)cc2)CC1
inhibition [2]: 23.6%

Cn1ccnc1CC(=O)N[C@@]1(C)CCCN(C(=O)c2cc(F)c3[nH]nnc3c2)C1
inhibition (PRVABC59, Concentration 49.5 uM, Number of replicates 2.0, Standard deviation 0.8238740770769488 %): 1.04% | inhibition (PRVABC59, Concentration 99.01 uM, Number of replicates 2.0, Standard deviation 0.8782808959106313 %): 2.48% | inhibition (PRVABC59, Concentration 198.0 uM, Number of replicates 2.0, Standard deviation 1.7280629357951662 %): 3.5%

O=C(N[C@H](CO)Cc1ccc(Cl)cc1)c1cc(Cl)ccc1NS(=O)(=O)c1ccc(Oc2ccccc2Cl)cc1
inhibition [1]: 50.2%

Cc1cc(CO)c2cccc(Cc3ccccc3NC(=O)[C@@H](N)CCN)c2n1
inhibition (PRVABC59, Concentration 49.95 uM, Number of replicates 2.0, Standard deviation 1.3894780827442335 %): -6.69% | inhibition (PRVABC59, Concentration 99.9 uM, Number of replicates 2.0, Standard deviation 0.9110496491593663 %): 5.76%

O=C(Nc1cccc(B(O)O)c1)[C@H]1CCN2CCOC[C@@H]12
inhibition (PRVABC59, Concentration 49.5 uM, Number of replicates 2.0, Standard deviation 1.8325815145713313 %): 0.689% | inhibition (PRVABC59, Concentration 99.01 uM, Number of replicates 2.0, Standard deviation 2.075699815014753 %): 1.7% | inhibition (PRVABC59, Concentration 198.0 uM, Number of replicates 2.0, Standard deviation 2.0144096361025445 %): 4.04%
